Here are results for 34 compounds from patent publication US6838475B2, “Imidazolidinones as NS3-serine protease inhibitors of hepatitis C virus” (Schering Corporation, priority 2000, dated 2005).

SMILES strings stand for the structures.

The target of the first assay is HCV NS3/NS4A protease (strain 1a) (Hepatitis C virus genotype 1a, UniProt P27958). Kind of assay: biochemical.
Conditions: not given
On the procedure: Spectronhotometric Assay: Spectrophotometric assay for the HCV serine protease was performed on the inventive compounds by following the procedure described by R. Zhang et al., Analytical Biochemistry, 270 (1999) 268-275, the disclosure of which is incorporated herein by reference. The assay based on the proteolysis of chromogenic ester substrates is suitable for the continuous monitoring of HCV NS3 protease activity. The substrates were derived from the P side of the NS5A—NS5B junction sequence (Ac-DTEDVVX(Nva) (SEQ ID NO: 1), where X=A or P) whose C-terminal carboxyl groups were esterified with one of four different chromophoric alcohols (3- or 4-nitrophenol, 7-hydroxy-4-methyl-coumarin, or 4-phenylazophenol).
Protein concentrations were determined by the Biorad dye method using recombinant HCV protease standards previously quantified by amino acid analysis. Prior to assay initiation, the enzyme storage buffer (50 mM sodium phosphate pH 8.0, 300 mM NaCl, 10% glycerol, 0.05% lauryl maltoside and 10 mM DTT) was exchanged for the assay buffer (25 mM MOPS pH 6.5, 300 mM NaCl, 10% glycerol, 0.05% lauryl maltoside, 5 μM EDTA and 5 μM DTT) utilizing a Biorad Bio-Spin P-6 prepacked column.
Protease Assay: HCV protease assays were performed at 30° C. using a 200 μl reaction mix in a 96-well microtiter plate. Assay buffer conditions (25 mM MOPS pH 6.5, 300 mM NaCl, 10% glycerol, 0.05% lauryl maltoside, 5 μM EDTA and 5 μM DTT) were optimized for the NS3/NS4A heterodimer (D. L. Sali et al, ibid.)). […] Fifty μls of prewarmed protease (12 nM, 30° C.) in assay buffer, was then used to initiate the reaction (final volume 200 μl).The plates were monitored over the length of the assay (60 minutes) for change in absorbance at the appropriate wavelength (340 nm for 3-Np and HMC, 370 nm for PAP, and 400 nm for 4-Np) using a Spectromax Plus microtiter plate reader equipped with a monochrometer (acceptable results can be obtained with plate readers that utilize cutoff filters). Proteolytic cleavage of the ester linkage between the Nva and the chromophore was monitored at the appropriate wavelength against a no enzyme blank as a control for non-enzymatic hydrolysis. The evaluation of substrate kinetic parameters was performed over a 30-fold substrate concentration range (˜6-200 μM). Initial velocities were determined using linear regression and kinetic constants were obtained by fitting the data to the Michaelis-Menten equation using non-linear regression analysis (Mac Curve Fit 1.1, K. Raner). Turnover numbers (kcat) were calculated assuming the enzyme was fully active.
Evaluation of Inhibitors and Inactivators: The inhibition constants (Kj) for the competitive inhibitors Ac-D-(D-Gla)-L-I-(Cha)-C-OH (27) (SEQ ID NO: 2), Ac-DTEDVVA(Nva)-OH (SEQ ID NO: 3) and Ac-DTEDVVP(Nva)-OH (SEQ ID NO: 4) were determined experimentally at fixed concentrations of enzyme and substrate by plotting vo/vi vs. inhibitor concentration ([I]o) according to the rearranged Michaelis-Menten equation for competitive inhibition kinetics: vo/vi=1[I]o/(Ki(1+[S]o/Km)), where vo is the uninhibited initial velocity, vi is the initial velocity in the presence of inhibitor at any given inhibitor concentration ([I]o) and [S]o is the substrate concentration used. The resulting data were fitted using linear regression and the resulting slope, 1/(Ki(1[S]o/Km), was used to calculate the Ki* value.
In general, Ki refers to a measure of affinity in units of concentration, obtained from inhibition or displacement. As to `C=CCNC(=O)C(=O)C(CCC)NC(=O)C1CN(Cc2ccccc2)C(=O)N1C(=O)C(NC(=O)C(N)C(C)C)C(C)C` (stereo not shown) [Example 16], the Ki is > 50 µM. With `C=CCNC(=O)C(=O)C(CCC)NC(=O)C1CN(CC(=O)OCC)C(=O)N1C(=O)C(NC(=O)C(NC(=O)C(CCC(=O)OC(C)(C)C)NC(=O)C(CCC(=O)OC(C)(C)C)NC(C)=O)C(C)C)C(C)C` (stereo not shown) [Example 4], the Ki is 1 to 50 µM. The same measure, in the same setting: the result for `C=CCNC(=O)C(=O)C(CCC)NC(=O)C1CN(CC(=O)OCC)C(=O)N1C(=O)C(NC(=O)C(CCC(=O)O)NC(C)=O)C(C)C` (stereo not shown) [Example 7] reads > 50 µM; that for `C=CCNC(=O)C(=O)C(CCC)NC(=O)C1CNC(=O)N1C(=O)C(NC(=O)C(NC(=O)OC(C)(C)C)C(C)C)C(C)C` (single isomer, unassigned) [Example 9], > 50 µM. Still for that read-out and setting: the result for `CCCC(NC(=O)C1CN(Cc2cccc(C)c2)C(=O)N1C(=O)C(NC(=O)C(NC(C)=O)C(C)C)C1CCCCC1)C(=O)C(=O)NCC(=O)NC(C(=O)O)c1ccccc1` (stereo not shown) [Example 53] reads 0.001 to 1 µM.

As to `CCCC(NC(=O)C1CN(Cc2ccccc2)C(=O)N1C(=O)C(NC(=O)C(NC(=O)OC(C)(C)C)C(C)C)C(C)C)C(=O)C(=O)NCC(=O)O` (stereo not shown) [Example 24], the Ki is > 50 µM. Same read-out and setting: the result for `CCCC(NC(=O)C1CN(Cc2ccccc2)C(=O)N1C(=O)C(NC(=O)C(NC(=O)C(CCC(=O)OC(C)(C)C)NC(=O)C(CCC(=O)OC(C)(C)C)NC(C)=O)C(C)C)C(C)C)C(=O)C(=O)NCC(=O)O` (stereo not shown) [Example 25] reads > 50 µM. Same read-out and setting: the result for `C=CCOC(=O)CNC(=O)C(=O)C(CCC)NC(=O)C1CN(Cc2ccccc2)C(=O)N1C(=O)C(NC(=O)C(NC(=O)C(CCC(=O)OC(C)(C)C)NC(=O)C(CCC(=O)OC(C)(C)C)NC(C)=O)C(C)C)C(C)C` (stereo not shown) [Example 22] reads > 50 µM; that for `C=CCNC(=O)C(=O)C(CCC)NC(=O)C1CN(CC(=O)OCC)C(=O)N1C(=O)C(NC(=O)C(CCC(=O)OC(C)(C)C)NC(C)=O)C(C)C` (stereo not shown) [Example 6], > 50 µM. Consider `C=CCOC(=O)CNC(=O)C(=O)C(CCC)NC(=O)C1CN(Cc2ccccc2)C(=O)N1C(=O)C(NC(=O)C(NC(=O)OC(C)(C)C)C(C)C)C(C)C` (stereo not shown) [Example 21], for which the Ki was > 50 µM.

For the compound `C=CCOC(=O)CNC(=O)C(=O)C(CCC)NC(=O)C1CN(Cc2ccc(Cl)c(Cl)c2)C(=O)N1C(=O)C(NC(=O)C(NC(=O)C(CCC(=O)O)NC(=O)C(CCC(=O)O)NC(C)=O)C(C)C)C(C)C` (stereo not shown) [Example 28], the inhibition constant (Ki) fell in the range of 0.001 to 1 µM. Same read-out and setting: the result for `C=CCNC(=O)C(=O)C(CCC)NC(=O)C1CNC(=O)N1C(=O)C(NC(=O)C(NC(=O)C(CCC(=O)OC(C)(C)C)NC(=O)C(CCC(=O)OC(C)(C)C)NC(C)=O)C(C)C)C(C)C` (stereo not shown) [Example 11] reads > 50 µM. Regarding `C=CCOC(=O)CNC(=O)C(=O)C(CCC)NC(=O)C1CN(Cc2ccc(Cl)c(Cl)c2)C(=O)N1C(=O)C(NC(=O)C(NC(=O)C(CCC(=O)OC(C)(C)C)NC(=O)C(CCC(=O)OC(C)(C)C)NC(C)=O)C(C)C)C(C)C` (stereo not shown) [Example 27], the Ki is > 50 µM. As to `CCCC(NC(=O)C1CN(Cc2ccc(C(C)(C)C)cc2)C(=O)N1C(=O)C(NC(=O)C(NC(C)=O)C(C)C)C1CCCCC1)C(=O)C(=O)NCC(=O)NC(C(=O)O)c1ccccc1` (stereo not shown) [Example 57], the Ki was 0.001 to 1 µM.

As to `C=CCOC(=O)CNC(=O)C(=O)C(CCC)NC(=O)C1CN(Cc2ccc(Cl)c(Cl)c2)C(=O)N1C(=O)C(NC(=O)C(NC(=O)OC(C)(C)C)C(C)C)C(C)C` (stereo not shown) [Example 26], the Ki is > 50 µM.

Still in this assay, the particulars now being: recombinant heterodimeric NS3/NS4A, chromogenic ester substrates, 30° C., pH 6.5; ranges of Ki* values; read-out: Ki*.
As to `CCCC(NC(=O)C1CN(Cc2ccc(Cl)cc2)C(=O)N1C(=O)C(NC(=O)OC(C)(C)C)C1CCCCC1)C(=O)C(=O)NCC(=O)N[C@H](C(=O)OCc1ccccc1)c1ccccc1` (stereo partly shown) [Example 33], the Ki lay in the range of 1 to 50 µM. Same read-out and setting: the result for `CCCC(NC(=O)C1CN(Cc2cccc(Cl)c2)C(=O)N1C(=O)C(NC(=O)OCC(C)C)C1CCCCC1)C(=O)C(=O)NCC(=O)N[C@H](C(=O)OCc1ccccc1)c1ccccc1` (stereo partly shown) [Example 39] reads > 50 µM. Take `CCCC(NC(=O)C1CN(Cc2ccc(Br)cc2)C(=O)N1C(=O)C(NC(=O)OCC(C)C)C1CCCCC1)C(=O)C(=O)NCC(=O)N[C@H](C(=O)OCc1ccccc1)c1ccccc1` (stereo partly shown) [Example 36]: the Ki was 1 to 50 µM. The same measure, in the same setting: the result for `CCCC(NC(=O)C1CN(Cc2ccc(Cl)cc2)C(=O)N1C(=O)C(NC(=O)OC(C)(C)C)C1CCCCC1)C(=O)C(=O)NCC(=O)N[C@H](C(=O)O)c1ccccc1` (stereo partly shown) [Example 42] reads > 50 µM. Still for that read-out and setting: the result for `CCCC(NC(=O)C1CN(Cc2ccc(C)c(C)c2)C(=O)N1C(=O)C(NC(=O)OCC(C)C)C1CCCCC1)C(=O)C(=O)NCC(=O)N[C@H](C(=O)O)c1ccccc1` (stereo partly shown) [Example 50] reads 1 to 50 µM; that for `CCCC(NC(=O)C1CN(Cc2cccc(Br)c2)C(=O)N1C(=O)C(NC(=O)OCC(C)C)C1CCCCC1)C(=O)C(=O)NCC(=O)N[C@H](C(=O)O)c1ccccc1` (stereo partly shown) [Example 45], > 50 µM; that for `CCCC(NC(=O)C1CN(Cc2cccc(Cl)c2)C(=O)N1C(=O)C(NC(=O)OCC(C)C)C1CCCCC1)C(=O)C(=O)NCC(=O)N[C@H](C(=O)O)c1ccccc1` (stereo partly shown) [Example 47], > 50 µM. Still for that read-out and setting: the result for `CCCC(NC(=O)C1CN(Cc2cccc(C)c2)C(=O)N1C(=O)C(NC(=O)OCC(C)C)C1CCCCC1)C(=O)C(=O)NCC(=O)N[C@H](C(=O)O)c1ccccc1` (stereo partly shown) [Example 52] reads 0.001 to 1 µM; that for `CCCC(NC(=O)C1CN(Cc2ccc(Cl)cc2)C(=O)N1C(=O)C(NC(=O)OCC(C)C)C1CCCCC1)C(=O)C(=O)NCC(=O)N[C@H](C(=O)OCc1ccccc1)c1ccccc1` (stereo partly shown) [Example 38], > 50 µM.

As for `CCCC(NC(=O)C1CN(Cc2cccc(Br)c2)C(=O)N1C(=O)C(NC(=O)OCC(C)C)C1CCCCC1)C(=O)C(=O)NCC(=O)N[C@H](C(=O)OCc1ccccc1)c1ccccc1` (stereo partly shown) [Example 37], the Ki was > 50 µM. The same measure, in the same setting: the result for `CCCC(NC(=O)C1CN(Cc2ccc(Br)cc2)C(=O)N1C(=O)C(NC(=O)OC(C)(C)C)C1CCCCC1)C(=O)C(=O)NCC(=O)N[C@H](C(=O)OCc1ccccc1)c1ccccc1` (stereo partly shown) [Example 31] reads > 50 µM; that for `CCCC(NC(=O)C1CN(Cc2cccc(Cl)c2)C(=O)N1C(=O)C(NC(=O)OC(C)(C)C)C1CCCCC1)C(=O)C(=O)NCC(=O)N[C@H](C(=O)OCc1ccccc1)c1ccccc1` (stereo partly shown) [Example 34], 1 to 50 µM. Still for that read-out and setting: the result for `CCCC(NC(=O)C1CN(Cc2cccc(Br)c2)C(=O)N1C(=O)C(NC(=O)OC(C)(C)C)C1CCCCC1)C(=O)C(=O)NCC(=O)N[C@H](C(=O)O)c1ccccc1` (stereo partly shown) [Example 41] reads > 50 µM; that for `CCCC(NC(=O)C1CN(Cc2cccc(Br)c2)C(=O)N1C(=O)C(NC(=O)OC(C)(C)C)C1CCCCC1)C(=O)C(=O)NCC(=O)N[C@H](C(=O)OCc1ccccc1)c1ccccc1` (stereo partly shown) [Example 32], > 50 µM; that for `C=CCNC(=O)C(=O)C(CCC)NC(=O)[C@@H]1CN(CC(=O)OCC)C(=O)N1C(=O)OCc1ccccc1` (stereo partly shown) [Example 1], > 50 µM. Still for that read-out and setting: the result for `C=CCNC(=O)C(=O)C(CCC)NC(=O)C1CNC(=O)N1C(=O)C(NC(=O)OC(C)(C)C)C(C)C` (stereo not shown) [Example 13] reads > 50 µM; that for `CCCC(NC(=O)C1CN(Cc2cccc(Cl)c2)C(=O)N1C(=O)C(NC(=O)OC(C)(C)C)C1CCCCC1)C(=O)C(=O)NCC(=O)N[C@H](C(=O)O)c1ccccc1` (stereo partly shown) [Example 43], > 50 µM; that for `CCCC(NC(=O)C1CN(Cc2ccccc2)C(=O)N1C(=O)C(NC(=O)OCC(C)C)C1CCCCC1)C(=O)C(=O)NCC(=O)N[C@H](C(=O)O)c1ccccc1` (stereo partly shown) [Example 48], 1 to 50 µM. For the compound `C=CCNC(=O)C(=O)C(CCC)NC(=O)C1CNC(=O)N1C(=O)C(N)C(C)C` (stereo not shown) [Example 14], the Ki is > 50 µM.
